Biological target: binding of gp120 to α4β7
Experiment: ELISA assay of gp120 binding to α4β7
Conditions: read-out: activity of inhibition of the binding of gp120 to α4β7, 1 μM gp120 and 1 μM α4β7
Source text: FIG. 36: ELISA Assay. A sandwich assay was developed to screen for compounds that inhibit the binding of a4b7 to gp120. Without inhibitors, gp120 and a4b7 bind and this complex can be identified by addition of a mouse anti-gp120 mAb (step 3). This a4b7·gp120·anti-gp120 mAb complex is then sequestered on the bottom surface of a 96 welled-plate coated with an anti-mouse secondary mAb (step 4). The complex is then detected by addition of a biotinylated primary mAb against a4b7 (step 5) and detected using an HRP-avidin (step 6). A positive binding event is identified by the presence of HPR activity within each well. The addition of an inhibitor (step 2) blocks the binding between gp120 and a4b7 leading to a lack or reduction of HRP activity as shown in steps 2-5 at the bottom of the figure. […]
Recombinant human α4β7 integrin was purchased from R&D Systems (Catalog Number: 5397-A3). Larger quantities of the α4β7 integrin were by in house. […] The purity of each subunit was evaluated by SDS-PAGE analysis and both subunits were purified to over 98% purity using a SilverQuest kit (Invitrogen) for detection. […] The activity of the α4β7 integrin was determined by using the methods established by R&D Systems Inc., as given by measuring the ability of the immobilized α4β7 integrin to support the adhesion of VCAM-1 transfected Chinese hamster ovary (CHO) cells. […]

In the case of `O=C(O)C=C(C(=O)OC1C2COC(=O)c3cc(O)c(O)c(O)c3-c3c(cc(O)c(O)c3O)C(=O)OC1C(O)C(OC(=O)c1cc(O)c(O)c(O)c1)O2)C1c2c(cc(O)c(O)c2O)C(=O)OC1C(=O)O` (stereo not shown) [Repandusinic acid A], the IC50 is reported as 1200 ± 100 nM.
